# Over roughly 33,000 sequences, “E-score (-0.5 to 0.5)” has its median near -0.032; the highest 2% begin near 0.36. This is one part of the list.
# Biological target: T1, Sko1 (UniProt Q02100)
# T1 sequence: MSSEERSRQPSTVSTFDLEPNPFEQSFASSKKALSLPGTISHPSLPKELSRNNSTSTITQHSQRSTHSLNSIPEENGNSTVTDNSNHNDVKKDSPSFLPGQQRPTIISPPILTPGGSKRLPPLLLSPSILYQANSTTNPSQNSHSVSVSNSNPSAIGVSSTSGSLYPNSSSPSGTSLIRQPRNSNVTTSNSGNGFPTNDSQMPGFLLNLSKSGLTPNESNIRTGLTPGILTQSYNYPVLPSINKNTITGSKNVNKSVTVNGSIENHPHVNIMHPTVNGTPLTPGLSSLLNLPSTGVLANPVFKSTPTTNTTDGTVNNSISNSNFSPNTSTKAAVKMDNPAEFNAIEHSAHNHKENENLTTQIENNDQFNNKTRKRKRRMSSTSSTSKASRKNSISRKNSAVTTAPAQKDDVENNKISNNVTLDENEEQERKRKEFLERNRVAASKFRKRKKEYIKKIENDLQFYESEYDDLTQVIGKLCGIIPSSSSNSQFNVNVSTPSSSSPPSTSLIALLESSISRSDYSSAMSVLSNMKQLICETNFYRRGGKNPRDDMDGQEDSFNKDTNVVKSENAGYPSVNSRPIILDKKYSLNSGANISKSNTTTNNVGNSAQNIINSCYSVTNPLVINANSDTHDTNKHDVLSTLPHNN
# Assay: PBM E-score (8-mer binding enrichment) (E-score (-0.5 to 0.5)); higher = stronger / more preferred TF binding; most listed sequences are background and not binding sites
# Settings: protein concentration: 200 nM; construct: GST-full length
# Method in brief: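 Using PURExpress in vitro transcription/translation, GST-tagged yeast transcription factors were made in full-length or DNA-binding-domain form. These were applied at about 100-200 nM to double-stranded universal all-10-mer Agilent arrays, and bound protein was detected with fluorescent anti-GST. Scans were normalised with masliner before the Universal PBM Analysis Suite assigned E-scores to ungapped eight-base words pooled with their reverse complements.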
row,Sequence,PBM E-score
1,CCATTTCG,-0.1
2,CCGATTAG,-0.178
3,AACATAAC,0.235
4,CCATTTAG,-0.157
5,ATCCTGGG,-0.201
6,TCTTGTAA,0.178
7,CACCTGGA,-0.0797
8,ACGGAAGG,-0.114
9,CTCGGTTA,-0.135
10,CTATCAAA,-0.0877
11,TCAAGCCA,0.106
12,CTCCGGGC,-0.327
13,CCCCGAGC,-0.208
14,AGATGCTG,-0.2
15,GAAAGGTA,0.0339
16,GCGTGCCC,-0.143
17,CCTACGAG,0.103
18,CCTAGAGA,-0.302
19,GCAGCTGC,-0.0556
20,TCGGCGCA,-0.094
21,AAAAACCC,-0.115
22,CTAGTGTA,0.00949
23,GATGCTCC,-0.182
24,GTTTCATA,0.0355
25,ATTTCAGA,0.113

row,Sequence,PBM E-score
1,CGCAACGA,0.175
2,AACTTCGG,-0.142
3,TTCGGCAA,0.0302
4,CAGATGCG,-0.0828
5,CTCAAAAA,0.115
6,AAACTAGG,-0.166
7,GTTGAACA,-0.0806
8,GGTCCCCA,-0.242
9,CGTTCCAA,0.176
10,TAAGAAAA,0.109
11,GCCCGTAC,-0.225
12,CCACAAAC,-0.0339
13,AGCCCTCA,-0.148
14,GGTCTGCA,-0.208
15,CGCTACGC,0.0784
16,ACGCTCAT,0.112
17,ATTTCGGG,-0.103
18,AAAGGGAC,-0.119
19,ACTGGTAT,-0.17
20,CTTTATAA,0.0548
21,ACTCGACA,-0.0755
22,CTACGATC,0.123
23,CGGCGTAG,-0.0753
24,ACATTTAC,0.226
25,ACAATTGC,0.195

row,Sequence,PBM E-score
1,ACCGGGTC,-0.116
2,CTAAAGGC,-0.0381
3,CGTTTTTA,0.206
4,GGGCATAC,-0.187
5,ATTCAGAC,0.173
6,CCTAGTGA,-0.0238
7,CTCTGTCA,0.0253
8,CCCTGCGA,-0.126
9,CGTCGGCA,-0.0449
10,CGTCGCAA,0.0897
11,CGGCGTGA,-0.0945
12,CCTACCAA,-0.00101
13,AGGGTGCA,-0.247
14,CTTTCTGA,0.0713
15,AACTTGAA,0.079
16,AAATCACC,0.124
17,AATCCGCT,-0.245
18,GCACAGGA,-0.241
19,GTCAAAGA,0.22
20,GGATATAC,0.116
21,TACGTAGA,0.452
22,ACAGCTCA,-0.109
23,CATTCCGC,-0.199
24,ATAGACAG,-0.0599
25,CTCGGTTC,-0.33

row,Sequence,PBM E-score
1,AAGTATTC,0.0857
2,AGAGTGCT,0.00873
3,AACGCCTT,-0.209
4,CAGCTCAA,-0.134
5,ATTTGGCC,-0.00792
6,CGGCGTTA,-0.0476
7,ATCATAAT,0.294
8,ATTGAGCC,-0.0846
9,CATAAAGG,-0.0363
10,CAGTTTGC,-0.19
11,CCTCCTAA,-0.121
12,CAGTCTCC,-0.165
13,GATAGACC,-0.0875
14,ATAAAAAC,0.274
15,CACCAGGC,-0.19
16,CACCTAAG,0.0413
17,TAAGTAGA,0.0586
18,TATAAGGA,0.112
19,CCCTTCAG,-0.211
20,CACCGATA,-0.15
21,ATCTCAGA,0.00298
22,AGTTATGG,0.0756
23,ATGATGCC,0.244
24,ATTCACGC,0.112
25,GATGTACC,0.169

row,Sequence,PBM E-score
1,GAAGCCCA,-0.19
2,AACCGGGC,-0.197
3,GACTACGA,0.0532
4,AGCTGTAA,0.111
5,CCGGTGCA,-0.307
6,TATGGTCA,-0.0135
7,CCGGCAGG,-0.21
8,CCTTTGAG,-0.246
9,CTCATATC,-0.0756
10,AGTTTAAA,0.0848
11,ATGAGGGA,-0.0866
12,AGATGTTG,-0.0881
13,ACAGTTAT,-0.0847
14,AGCTAGCA,-0.152
15,AGGTCGGG,-0.181
16,GACGCTCA,0.0162
17,GCAGAAGC,-0.0652
18,GACCCCAA,-0.191
19,AATGCAGT,-0.00733
20,CCATGTGC,-0.00035
21,AGCCAGGG,-0.174
22,ACTGGATG,-0.0786
23,AGCCTCTC,-0.308
24,CAGCAGCG,-0.213
25,CCTGCGAC,-0.19

row,Sequence,PBM E-score
1,CCACACCG,-0.196
2,CGTAAGCA,0.285
3,AGATAAAC,0.077
4,CAGTCCAG,-0.226
5,CGGGCCAG,-0.256
6,CTTGGGGC,-0.23
7,AAGACATG,0.139
8,CAGCGCAA,-0.044
9,GGCCCAAA,-0.258
10,ACTGGACC,-0.119
11,ATCATGAA,0.126
12,GAATGTGC,0.0492
13,AAAGTCAG,-0.211
14,CGCATTAG,0.005
15,CTTACGAC,0.16
16,AAAACAAG,0.0101
17,CGTGCGAG,0.08
18,CAAACTGC,-0.044
19,CAGTGTGG,-0.203
20,AGCACGTA,0.406
21,GCCCCTAA,-0.235
22,ACGCGTAC,0.307
23,GATACGCC,0.0708
24,AAGCGCTA,0.0442
25,AATTAACT,0.199

row,Sequence,PBM E-score
1,AAGCGTAT,0.107
2,CTCTACGC,0.0479
3,CAGCCTAC,-0.0628
4,CCTCGCCG,-0.442
5,CGCGGGCA,-0.0346
6,ACGGGCGC,-0.241
7,ATATGCTG,-0.00443
8,CAAGATGC,0.106
9,GCAATACA,0.182
10,CCCCCATA,-0.262
11,GCCCGTTA,-0.152
12,CAAGTATC,-0.0706
13,ACATCGCA,-0.0757
14,CATCAGGC,-0.0323
15,GCTTCGTA,0.125
16,ATAAAATC,0.0454
17,AGTCACTA,0.0867
18,ACGAGGTG,0.0729
19,TCACATAA,0.304
20,ACAATGTA,0.111
21,GCCCGAGC,-0.152
22,ATCGTTAC,0.139
23,GAGAGTAA,-0.011
24,ATAGGTTG,-0.119
25,ACCACGCT,-0.0849

row,Sequence,PBM E-score
1,CACCTGTA,-0.287
2,GGAGGCAC,-0.118
3,ACTTACCG,0.00307
4,ATACAAAG,0.125
5,ACACAACG,0.194
6,AATCATTC,0.182
7,ATCGGTGC,0.105
8,ACTAGACC,0.00084
9,AACTCGCC,-0.048
10,CGAGGGCA,-0.152
11,GCACACGA,0.0509
12,ATCGCTAA,0.111
13,AGACCGAA,0.0258
14,GAATAGAA,0.0233
15,CTGCTAAG,-0.194
16,GATATCGC,0.0249
17,ACGCATGG,0.111
18,ACGTACGG,0.38
19,GTGGGTCA,-0.122
20,AAGGCATA,0.00229
21,AAGGCAGT,-0.0544
22,AAGCCGTA,0.103
23,ATAAGCCC,-0.226
24,GGATACGA,0.0523
25,CCCCAAAA,0.00959

row,Sequence,PBM E-score
1,ATATACGG,0.219
2,CATCTAGG,4e-05
3,CCTAATAA,0.115
4,CTTCGTAA,0.287
5,ATGATAAA,0.235
6,CCTCAGGA,-0.282
7,ACTCTTTC,-0.13
8,ATCTAGAA,0.0885
9,CCTTCTGA,-0.0197
10,AAAACCCA,0.097
11,GCTCGCAA,0.0353
12,ACTGGGTG,-0.0498
13,ACTCGATG,0.0907
14,CAGGCCTG,-0.282
15,CGCAGGGA,-0.165
16,AGTGTAGA,-0.169
17,TACCCCTA,-0.102
18,CGCAAGCG,0.00208
19,GGTCGGAC,-0.209
